The other results are listed elsewhere or left out. The list includes weakly bound sequences.

In the experiment the target is MaxL homodimer (UniProt P61244). Description: universal protein-binding microarray (PBM). To be noted: PBS-based mixture, 10 nM His-tagged protein dimer, 2% milk, 200 ng/uL BSA, 50 ng/uL salmon testes DNA, 0.02% TX-100; detection with Alexa 488 anti-His …; high values mean tight binding; most listed sequences are background and not binding sites; double strand, one strand shown.
Sequence of UniProt P61244 (P61244 whole entry): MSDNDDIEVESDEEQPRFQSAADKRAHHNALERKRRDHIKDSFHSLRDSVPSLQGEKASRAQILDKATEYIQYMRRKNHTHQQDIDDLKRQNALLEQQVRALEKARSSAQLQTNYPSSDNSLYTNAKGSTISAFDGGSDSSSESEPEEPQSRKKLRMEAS
Take AAAGAGGG: the binding signal (normalized occupancy) came to 0.0738.

As to ATCATCCC, the binding signal (normalized occupancy) was determined as 0.0817.

Regarding CCAGATCA, the binding signal (normalized occupancy) stood at 0.0815.

Take CCGTACTA: the binding signal (normalized occupancy) turned out to be 0.0713.

Take AGTTTCGA: the binding signal (normalized occupancy) stood at 0.0707.

On to CAGGCATG, for which the binding signal (normalized occupancy) was determined as 0.0964.

Turning to CCTGGGTC, the binding signal (normalized occupancy) stood at 0.0709.

On to AGGTCGTA, for which the binding signal (normalized occupancy) stood at 0.0767.

As to CGCCGGTA, the binding signal (normalized occupancy) amounted to 0.0675.

Regarding CTGCGACC, the binding signal (normalized occupancy) amounted to 0.0739.

Take ACACGGCT: the binding signal (normalized occupancy) was found to be 0.0732.

For AACCATAT, the binding signal (normalized occupancy) was found to be 0.0848.

For the sequence GCCAATGA, the binding signal (normalized occupancy) was 0.0735.

For the sequence ATCCTCTC, the binding signal (normalized occupancy) came out at 0.0703.

Consider AACCACCA, for which the binding signal (normalized occupancy) was 0.0807.

As to ATTAGAGG, the binding signal (normalized occupancy) was 0.0752.

As to CACAGCTA, the binding signal (normalized occupancy) worked out at 0.0757.

Turning to ACCGTCGT, the binding signal (normalized occupancy) worked out at 0.0791.

As to CATGCTAG, the binding signal (normalized occupancy) worked out at 0.106.

Consider CTCCCGAC, for which the binding signal (normalized occupancy) came out at 0.0715.

As for TAACCAGA, the binding signal (normalized occupancy) came out at 0.0757.

As for GCTCCGTA, the binding signal (normalized occupancy) was 0.0695.

Consider ACCGGCTG, for which the binding signal (normalized occupancy) was 0.0679.

In the case of AGAACCCA, the binding signal (normalized occupancy) turned out to be 0.0723.

With CCCAAGCA, the binding signal (normalized occupancy) is 0.0813.

In the case of GGCGTACA, the binding signal (normalized occupancy) turned out to be 0.0747.

Regarding CACCGAGA, the binding signal (normalized occupancy) amounted to 0.0776.

For AGGCTTTG, the binding signal (normalized occupancy) worked out at 0.0697.

Take GCTTTGAC: the binding signal (normalized occupancy) stood at 0.0732.

As for TATTGGAA, the binding signal (normalized occupancy) is 0.0758.

AAGAACCG: the binding signal (normalized occupancy) was 0.0698.

As for AAATGTGA, the binding signal (normalized occupancy) stood at 0.0885.

For the sequence GTGTTAAC, the binding signal (normalized occupancy) was determined as 0.0783.

Regarding AGTTATCG, the binding signal (normalized occupancy) was 0.0696.

CGCACCGC: the binding signal (normalized occupancy) was 0.0721.

On to CGAGCCCC, for which the binding signal (normalized occupancy) came to 0.0725.

Regarding GGAAACTA, the binding signal (normalized occupancy) is 0.0719.

Regarding AATGGTAC, the binding signal (normalized occupancy) is 0.0764.

For the sequence AGCGTATA, the binding signal (normalized occupancy) was 0.0804.

Consider CAATAGGG, for which the binding signal (normalized occupancy) turned out to be 0.0742.

Take GCGAAGAA: the binding signal (normalized occupancy) turned out to be 0.0702.

Take TAGTAGGA: the binding signal (normalized occupancy) amounted to 0.0757.

For the sequence AACCGTAT, the binding signal (normalized occupancy) turned out to be 0.075.

For the sequence ATAAGCCG, the binding signal (normalized occupancy) stood at 0.0733.

As to CGCCTGAA, the binding signal (normalized occupancy) was found to be 0.0718.

In the case of ACGGTACG, the binding signal (normalized occupancy) was 0.0734.

Regarding ACGTTCGG, the binding signal (normalized occupancy) worked out at 0.0768.

On to ACTCAGAT, for which the binding signal (normalized occupancy) worked out at 0.0759.

In the case of ACCGCTAT, the binding signal (normalized occupancy) stood at 0.0744.

As for AATGATAG, the binding signal (normalized occupancy) came out at 0.0801.

Consider AAAGGAAC, for which the binding signal (normalized occupancy) is 0.0731.

As to CAAAAAGG, the binding signal (normalized occupancy) was found to be 0.0699.

For CAACACAA, the binding signal (normalized occupancy) is 0.0772.

For ACGGAGCC, the binding signal (normalized occupancy) came out at 0.0668.

Turning to CAGGCACC, the binding signal (normalized occupancy) is 0.0774.

Take GTGTTCGA: the binding signal (normalized occupancy) turned out to be 0.0742.

CGAAGATC: the binding signal (normalized occupancy) is 0.0766.

Regarding GCGTTTCC, the binding signal (normalized occupancy) is 0.0788.

Turning to AGAAAATC, the binding signal (normalized occupancy) was found to be 0.077.

As to AACCCTCC, the binding signal (normalized occupancy) is 0.0761.

As for TACGCTGA, the binding signal (normalized occupancy) was determined as 0.0736.

On to GCCCGCAC, for which the binding signal (normalized occupancy) was 0.0736.

As for GAATTCAC, the binding signal (normalized occupancy) was determined as 0.0741.

As to AACACTTA, the binding signal (normalized occupancy) stood at 0.0802.

Consider AAACCCAC, for which the binding signal (normalized occupancy) came to 0.0824.

Take AGTAGGCA: the binding signal (normalized occupancy) worked out at 0.0718.

As to CAATGATA, the binding signal (normalized occupancy) worked out at 0.0804.

Regarding CACACATG, the binding signal (normalized occupancy) came out at 0.136.

Consider AGAAGAGA, for which the binding signal (normalized occupancy) stood at 0.073.

As to GGAATAGA, the binding signal (normalized occupancy) was 0.0805.

Regarding CAATAGCC, the binding signal (normalized occupancy) came out at 0.0739.

Turning to ACAGGTAA, the binding signal (normalized occupancy) is 0.0728.

Turning to CGCCGAGA, the binding signal (normalized occupancy) was 0.0686.

Regarding CTGAGAAG, the binding signal (normalized occupancy) is 0.0685.

As to AAGATCAG, the binding signal (normalized occupancy) is 0.0746.

For the sequence AATAAACG, the binding signal (normalized occupancy) was 0.0766.

As to AGGATCAA, the binding signal (normalized occupancy) was found to be 0.0762.

CGACTTCC: the binding signal (normalized occupancy) was found to be 0.0713.

As to TCACCACA, the binding signal (normalized occupancy) was found to be 0.0793.

CAAGCGAG: the binding signal (normalized occupancy) was determined as 0.0757.

For the sequence CATAGGGC, the binding signal (normalized occupancy) was 0.0795.

On to ATATGGTA, for which the binding signal (normalized occupancy) worked out at 0.0884.

For CAGGCAAG, the binding signal (normalized occupancy) came to 0.0736.

With ATTCCGGA, the binding signal (normalized occupancy) amounted to 0.0756.

GTAGCAAC: the binding signal (normalized occupancy) is 0.0821.

With AGTCATAA, the binding signal (normalized occupancy) was 0.0784.

Consider AGGCCTTA, for which the binding signal (normalized occupancy) turned out to be 0.0724.

Turning to AGTGTGGG, the binding signal (normalized occupancy) worked out at 0.0827.

Turning to CAGAGTCA, the binding signal (normalized occupancy) worked out at 0.0704.

Regarding CACAACGC, the binding signal (normalized occupancy) was found to be 0.0792.

In the case of TCCGTGAA, the binding signal (normalized occupancy) turned out to be 0.0753.

Consider AACAAGTG, for which the binding signal (normalized occupancy) is 0.0775.

As for AAAGTATC, the binding signal (normalized occupancy) came to 0.0742.

In the case of GCCCAAAA, the binding signal (normalized occupancy) amounted to 0.0679.

For the sequence CCTGATGC, the binding signal (normalized occupancy) was 0.0825.

Take ACGCGGGG: the binding signal (normalized occupancy) stood at 0.0786.

On to ACTCATGG, for which the binding signal (normalized occupancy) worked out at 0.0945.

Consider AGCGTGGA, for which the binding signal (normalized occupancy) came out at 0.106.

GTTTAATA: the binding signal (normalized occupancy) worked out at 0.0809.

Regarding ACTTGGCC, the binding signal (normalized occupancy) amounted to 0.0668.

As for AGTAGTTC, the binding signal (normalized occupancy) turned out to be 0.0718.

ACGTAGAG: the binding signal (normalized occupancy) amounted to 0.0814.

AAGCATAC: the binding signal (normalized occupancy) is 0.0751.

In the case of ACCACCCA, the binding signal (normalized occupancy) came to 0.0821.

With AATCGGTC, the binding signal (normalized occupancy) is 0.0693.

On to CTCATGGC, for which the binding signal (normalized occupancy) came to 0.0965.

For the sequence GACCACAA, the binding signal (normalized occupancy) stood at 0.0763.

As for TCTCCTAA, the binding signal (normalized occupancy) worked out at 0.0749.

As to AGACCTGC, the binding signal (normalized occupancy) worked out at 0.0709.

For the sequence GGTGACAC, the binding signal (normalized occupancy) turned out to be 0.0824.

The values above are taken from PMC4242493.
